{
  "source": "ChEMBL document CHEMBL4888484",
  "about": "“Replenishing the malaria drug discovery pipeline: Screening and hit evaluation of the MMV Hit Generation Library 1 (HGL1) against asexual blood stage Plasmodium falciparum ,using a nano luciferase reporter read-out” (2022)",
  "note": "Hit rate of the full screen: of about 150,000 compounds, about 540 (0.36%) showed an effect of 50% or more. The list shows a part of the results.",
  "data": [
    {"system": "Plasmodium falciparum", "assay": "Primary screen in NF54 nanoGlo assay, in single point, at 2uM, 72h; a lower Z score goes with more inhibition", "format": "functional, Erythrocyte", "settings": "timepoint 72 hour", "units": {"% Inhibition": "%"}, "values": [
      {"compound": "CC(=O)NC1C(Oc2cccc3cccnc23)OC(COC(C)=O)C(OC(C)=O)C1OC(C)=O", "note": "(stereo not drawn)", "% Inhibition": 5, "Z score": -0.57},
      {"compound": "COc1ccc(CCN2C(=O)N[C@@H](CC(=O)NCCn3cccn3)C2=O)cc1", "% Inhibition": 1, "Z score": -0.1},
      {"compound": "Cc1ncsc1CCc1nc(-c2ncsc2Cl)no1", "% Inhibition": -3, "Z score": 0.36},
      {"compound": "CC[C@]1(O)CCN(Cc2nccc(OC)c2OC)C[C@@H]1O", "% Inhibition": 3, "Z score": -0.36},
      {"compound": "Cc1cc(S(=O)(=O)N2CCc3ccc(F)c(C(=O)O)c3C2)c(C)s1", "% Inhibition": -10, "Z score": 1.35},
      {"compound": "CC(C)CCn1ccc(NC(=O)Nc2ccncc2)n1", "% Inhibition": -12, "Z score": 1.38},
      {"compound": "CC(=O)Nc1ccc(S(=O)(=O)Nc2cnc(N(C)C)nc2N(C)C)cc1", "% Inhibition": 6, "Z score": -0.87},
      {"compound": "O=C1CCN(CC(=O)N[C@H]2CCCc3ccccc32)CCN1", "% Inhibition": 0, "Z score": 0},
      {"compound": "COCCC1(CNC(=O)Nc2cc(C3CCC3)nn2C)CCC1", "% Inhibition": -5, "Z score": 0.76},
      {"compound": "CCc1nsc(N[C@H]2CCc3ncsc3C2)n1", "% Inhibition": -2, "Z score": 0.21},
      {"compound": "O=S1(=O)N[C@@H]2CN(CC3CC3)C[C@@H]2Oc2ccccc21", "% Inhibition": -8, "Z score": 1.37},
      {"compound": "CC(=O)N(c1nc(CN(C2CC2)[C@@H](C)c2ccc(Cl)cc2)cs1)C1CC1", "% Inhibition": -14, "Z score": 1.95},
      {"compound": "O=C(Nc1cnccc1-n1cccn1)c1csc(C2CC2)n1", "% Inhibition": -22, "Z score": 3.5},
      {"compound": "CC[C@H]1CCCN(C(=O)NCc2ccc(=O)[nH]n2)CC1", "% Inhibition": -6, "Z score": 1.23},
      {"compound": "C[C@@H](CCOc1ccccc1)C(=O)NCC#N", "% Inhibition": 7, "Z score": -1.01},
      {"compound": "CN(CCNS(C)(=O)=O)c1cncc(Br)c1", "% Inhibition": 13, "Z score": -1.81},
      {"compound": "COc1cc2c(cc1OC)[C@H](c1ccccc1)N(Cc1cn3ccccc3n1)CC2", "% Inhibition": -9, "Z score": 1.7},
      {"compound": "c1ccc(CN2CCN(CCO[C@@H]3CCCCO3)CC2)cc1", "% Inhibition": -21, "Z score": 3.88},
      {"compound": "COC1([C@H](C)NC(=O)c2cccn2C)CCOCC1", "% Inhibition": -12, "Z score": 1.66},
      {"compound": "COc1ccc(C(=O)N[C@H]2CCCc3c2cnn3-c2cccc(C)c2C)o1", "% Inhibition": -5, "Z score": 0.85},
      {"compound": "O=C(CCN1Cc2ccccc2C1)N[C@H]1CCOC[C@@H]1Oc1ccccn1", "% Inhibition": -17, "Z score": 2.23},
      {"compound": "C[C@@H](CC(=O)N1CCN(c2ccc(F)cc2)CC1)c1ccncc1", "% Inhibition": -6, "Z score": 0.83},
      {"compound": "CCc1ocnc1C(=O)Nc1c(-c2cnn(C)c2)nc2n1CCCC2", "% Inhibition": 6, "Z score": -0.8},
      {"compound": "Cc1cc(NC(=O)[C@H](C)OC(=O)c2ccc3nccn3c2)on1", "% Inhibition": 9, "Z score": -1.2},
      {"compound": "CCC#CCN1CCC2(CCC(=O)NC2)CC1", "% Inhibition": 1, "Z score": -0.1},
      {"compound": "Cc1cccc(OCC(=O)N2C[C@@H](CN3CCCCC3)[C@@H](CO)C2)c1", "% Inhibition": -3, "Z score": 0.51},
      {"compound": "CCn1ncc(S(=O)(=O)N2C[C@@H]3CC[C@H]2CN(C)C3)c1C", "% Inhibition": 0, "Z score": 0.02},
      {"compound": "Cc1cc(F)c(Br)cc1NS(=O)(=O)C1CC1", "% Inhibition": -13, "Z score": 1.52},
      {"compound": "CCN(CC)c1ccc(NCc2cccs2)cc1", "% Inhibition": -14, "Z score": 2.01},
      {"compound": "CC(C)CC(=O)N(Cc1cccc(F)c1)c1ccc(CC(=O)NCCc2ccccc2)cc1", "% Inhibition": -8, "Z score": 0.81},
      {"compound": "COc1ccc2c(c1F)CC[C@@H]2NCc1occc1C", "% Inhibition": -9, "Z score": 0.85},
      {"compound": "CC(=O)C(=O)N(CC1CCN(Cc2ccccc2F)CC1)C[C@H]1CCCO1", "% Inhibition": -12, "Z score": 1.72},
      {"compound": "CC(C)(C)OC(=O)N[C@@]1(C(=O)N2CCNC(=O)C2)CC1(F)F", "% Inhibition": -3, "Z score": 0.31},
      {"compound": "Cc1cc(=S)cc(C)n1CCCc1ccccc1", "% Inhibition": 4, "Z score": -0.46},
      {"compound": "CC[C@@H](C(=O)NCCOC)n1cc(-c2nc(-c3ccccc3F)no2)ccc1=O", "% Inhibition": -20, "Z score": 3.73},
      {"compound": "O=C(CC[C@@H]1N=C(O)N(Cc2ccccc2)C1=O)N1CCN(C/C=C/c2ccccc2)CC1", "% Inhibition": -12, "Z score": 1.3},
      {"compound": "CCc1nn(-c2ccc(F)cc2)c(N2CCN(C(C)C)CC2)c1CN(CC(C)C)C(=O)C1CCCC1", "% Inhibition": -3, "Z score": 0.39},
      {"compound": "CC(NC(=O)C1C(c2ccc(NC(=O)Cc3ccccc3)cc2)OC(=O)N1Cc1ccc(F)cc1)c1ccccc1", "note": "(stereo not drawn)", "% Inhibition": 26, "Z score": -2.47},
      {"compound": "C[C@@H](C(=O)Nc1ccccc1N(C)Cc1ccccc1)S(C)(=O)=O", "% Inhibition": -2, "Z score": 0.31},
      {"compound": "CC1(C)CN(S(=O)(=O)c2cccc(C(=O)NC[C@H]3CCOC3)c2)CCO1", "% Inhibition": -21, "Z score": 2.27},
      {"compound": "O=C(c1ccc2ccccc2c1)N1CCC[C@H]1c1ccc2c(c1)OCCO2", "% Inhibition": -10, "Z score": 1.63},
      {"compound": "Cn1c(=O)c2c(-c3ccccc3)n3c(c2n(C)c1=O)[C@@H](c1ccc(O)cc1)Nc1ccccc1-3", "% Inhibition": 5, "Z score": -1.01},
      {"compound": "O=C(c1ccc(-n2nnc3cccnc32)cc1)N1CCN(c2ccccc2F)CC1", "% Inhibition": -4, "Z score": 0.71},
      {"compound": "Cc1cccc(N2CCN(C(=O)C3CCN(S(=O)(=O)Cc4ccccc4Cl)CC3)CC2)c1C", "% Inhibition": -2, "Z score": 0.31},
      {"compound": "COc1cc(CN2C[C@@H](C)CN(C)c3ccccc32)cc(OC)c1OC", "% Inhibition": -1, "Z score": 0.16},
      {"compound": "Nc1ncc(Cl)cc1S(=O)(=O)N1CCCC[C@H](N2CCCC2)C1", "% Inhibition": -2, "Z score": 0.22},
      {"compound": "NC(=O)C(=O)NCc1ccc(-c2ccoc2)o1", "% Inhibition": -5, "Z score": 0.71},
      {"compound": "CC(C)(C)C(=O)Nc1cnc2ccnn2c1", "% Inhibition": 1, "Z score": -0.19},
      {"compound": "CCC(=O)N(CCn1ccnc1)Cc1ccccc1Br", "% Inhibition": -4, "Z score": 0.52},
      {"compound": "Cc1n[nH]c2nc3ccccc3c(-c3ccccc3)c12", "% Inhibition": -17, "Z score": 2.78},
      {"compound": "CO[C@@H](C)c1nsc(NCc2ccc3c(c2)CNC3)n1", "% Inhibition": -7, "Z score": 0.94},
      {"compound": "O=C(NCCc1cccc2cccnc12)NCC[C@H]1CCCCO1", "% Inhibition": -10, "Z score": 1.14},
      {"compound": "CCCCN1C(=O)C2CCC3(CC2C1=O)OCCO3", "note": "(stereo not drawn)", "% Inhibition": -11, "Z score": 1.45},
      {"compound": "CCN(CC)S(=O)(=O)Nc1cc(S(=O)(=O)N2CCOCC2)ccc1NC[C@H]1CCCO1", "% Inhibition": -3, "Z score": 0.44},
      {"compound": "CC[C@H](C)Oc1cc(CNCCC(=O)NC)ccc1OC", "% Inhibition": -4, "Z score": 0.3},
      {"compound": "O=C1O[C@H]2CN(Cc3ccc4c(c3)OCCO4)C[C@H]2N1Cc1ccccn1", "% Inhibition": -11, "Z score": 1},
      {"compound": "Cc1c(C(=O)NCc2cccnc2)cnn1-c1nccc(-c2ccccc2F)n1", "% Inhibition": -2, "Z score": 0.23},
      {"compound": "CC(C)c1noc(CNC(=O)N2CCC[C@H](C#N)C2)n1", "% Inhibition": -17, "Z score": 1.63},
      {"compound": "O=C(Nc1ccc(-n2ccnn2)cc1)Nc1ccsc1", "% Inhibition": 31, "Z score": -3.53},
      {"compound": "Cc1cc(F)ccc1NC(=O)CC[C@H]1CCCN(C(=O)c2ccc(=O)n(C)n2)C1", "% Inhibition": -6, "Z score": 0.74},
      {"compound": "O=c1ccc(C(F)(F)F)cn1Cc1ccc(-n2cccn2)cc1", "% Inhibition": 1, "Z score": -0.1},
      {"compound": "COc1cccc(-c2cc3n(n2)CCCN(C(=O)C2CCC2)C3)c1", "% Inhibition": 6, "Z score": -1.26},
      {"compound": "CC(=O)c1ccc(CNc2ncc(Cl)cn2)nc1C", "% Inhibition": -16, "Z score": 1.6},
      {"compound": "C[C@H](Nc1ccc(N2CCCC2=O)cc1)C(=O)N1CCCCCC1", "% Inhibition": 0, "Z score": -0.05},
      {"compound": "O=C(O)[C@@H]1CN(C(=O)CCc2nccs2)C[C@H]1c1ccc(Cl)cc1", "% Inhibition": -1, "Z score": 0.1},
      {"compound": "CC(=O)NCCNC(=O)c1cnc(COc2ccc(F)cc2)nc1O", "% Inhibition": -15, "Z score": 2.07},
      {"compound": "CCn1c(C)cc(C(=O)N(C)[C@H]2C[C@@H](OC)C2)c1C", "% Inhibition": -4, "Z score": 0.69},
      {"compound": "C[C@@H](c1ccccc1)n1cnnc1CCc1ccccc1O", "% Inhibition": -16, "Z score": 2.19},
      {"compound": "CN1CCC[C@H](CCC(=O)N2CCC3(CC2)C(=O)N(C)c2ccccc23)C1", "% Inhibition": -6, "Z score": 0.9},
      {"compound": "CN1CC2(C[C@H]1c1noc(-c3ccccn3)n1)CN(C(=O)C1(C)CCCCC1)C2", "% Inhibition": -22, "Z score": 2.52},
      {"compound": "Cn1ncnc1NS(=O)(=O)c1cccs1", "% Inhibition": -15, "Z score": 2.01},
      {"compound": "O=C(CN(CC1CCCC1)CC1CCCC1)Nc1cccc(F)c1", "% Inhibition": -8, "Z score": 1.47},
      {"compound": "C=C(C)COc1ccc(NC(=O)N(Cc2nnc(CC)o2)C(C)C)cc1", "% Inhibition": -7, "Z score": 1.33},
      {"compound": "O=C(Cc1ccccc1Cl)N1CCC(=C2CCC2)CC1", "% Inhibition": -15, "Z score": 2.34},
      {"compound": "CCc1ccc(CNC(=O)C2CCN(c3nnc(C)c4c(C)n(-c5ccc(C)cc5)nc34)CC2)cc1", "% Inhibition": 20, "Z score": -2.28},
      {"compound": "COc1cc(NC(=O)Cn2c(=O)n(-c3cccc(C)c3)c(=O)c3c2cc(C)n3C)cc(OC)c1", "% Inhibition": -7, "Z score": 0.6},
      {"compound": "Cc1c(Cl)ccc2c1NC(=O)C21NC(CC(N)=O)[C@H]2C(=O)N(C3CCCCC3)C(=O)[C@H]21", "note": "(stereo partly drawn)", "% Inhibition": 6, "Z score": -0.7},
      {"compound": "O=C(CCCc1nccs1)Nc1ccn(CCc2ccncc2)n1", "% Inhibition": -2, "Z score": 0.21},
      {"compound": "CCCS(=O)(=O)N1CCC[C@H]1c1cc(C)on1", "% Inhibition": -18, "Z score": 2.37},
      {"compound": "CC(C)n1cncc1CN(C)[C@@H]1CCCC[C@@H]1O", "% Inhibition": 11, "Z score": -1.51},
      {"compound": "CN(C)[C@@H](CNc1oc(-c2ccccc2C(F)(F)F)nc1C#N)c1ccc(C(F)(F)F)cc1", "% Inhibition": -2, "Z score": 0.35},
      {"compound": "COC[C@H](C)NC(=O)Nc1ccnc(C)c1", "% Inhibition": -8, "Z score": 0.7},
      {"compound": "O=C(CCc1nc(C2CCCC2)no1)N1CCCC2(CCCCC2)CC1", "% Inhibition": 5, "Z score": -0.46},
      {"compound": "CN(C)c1nccnc1NC[C@H]1CC(=O)N(C2CC2)C1", "% Inhibition": -6, "Z score": 1.2}
    ]}
  ]
}
